About 230 (0.21%) of roughly 110,000 compounds showed an effect of 50% or more. Some of the results follow.
Molecular target: DPAP1 (Plasmodium falciparum, UniProt Q8IIJ9)
Assay: primary screen, percent inhibition; read by cleavage of a fluorogenic dipeptide substrate; higher = more effect of the substance
Design: species or system P. falciparum D10 trophozoite lysates; single well
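Note: 30 min substrate incubation versus DMSO and 10 µM JCP410 controls.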

Sequence of DPAP1 (Q8IIJ9 whole entry, looked up): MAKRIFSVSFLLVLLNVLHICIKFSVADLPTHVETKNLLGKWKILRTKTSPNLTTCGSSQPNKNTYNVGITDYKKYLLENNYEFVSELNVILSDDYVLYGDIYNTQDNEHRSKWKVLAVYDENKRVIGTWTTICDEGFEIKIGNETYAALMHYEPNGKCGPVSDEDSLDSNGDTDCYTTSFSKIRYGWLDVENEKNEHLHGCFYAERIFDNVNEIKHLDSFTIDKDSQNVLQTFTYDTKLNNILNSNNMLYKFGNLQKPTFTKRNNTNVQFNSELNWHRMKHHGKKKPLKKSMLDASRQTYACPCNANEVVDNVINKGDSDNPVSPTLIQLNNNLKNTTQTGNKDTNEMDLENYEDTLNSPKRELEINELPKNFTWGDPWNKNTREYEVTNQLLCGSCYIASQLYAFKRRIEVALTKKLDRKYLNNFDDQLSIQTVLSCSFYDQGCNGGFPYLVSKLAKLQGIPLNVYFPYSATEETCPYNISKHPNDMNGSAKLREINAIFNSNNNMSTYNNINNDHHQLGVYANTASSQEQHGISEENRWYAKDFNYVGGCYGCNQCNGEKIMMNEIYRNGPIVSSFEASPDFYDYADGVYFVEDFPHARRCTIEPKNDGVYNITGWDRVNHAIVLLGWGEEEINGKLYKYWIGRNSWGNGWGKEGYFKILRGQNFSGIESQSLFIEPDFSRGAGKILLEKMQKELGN

SMILES	% Inhibition @ 10 uM
COc1ccc2[nH]c(N3CCCCC3)nc2c1	2%
Cc1nc2cc(/C=C/C(=O)c3nc4ccccc4s3)ccc2n1-c1ccccc1	-3.44%
Clc1ccc(CC2=NCCN2)cc1	-1.99%
COc1ccc(NC(=O)CN(c2cccc(Cl)c2Cl)S(=O)(=O)c2ccccc2)c(OC)c1	-5.13%
O=C(NCC1CCCO1)c1ccc(NC(=O)c2ccc(Br)cc2)cc1 (stereo not drawn)	5.54%
CCOC(=O)c1cc(C)n(S(=O)(=O)c2ccc(C)cc2)c1C	1.63%
CCN(CC)S(=O)(=O)c1ccc(NC(=O)COc2ccc(C)cc2)cc1	-8.01%
CCOc1ccc(CNC(=S)Nc2ccccc2)cc1Cl	-2.44%
O=C(Nc1ccccc1Br)c1ccccc1Cl	-3.72%
CCC1CCCCN1CCCNC(=O)C1CCCN(c2nn3c(=O)cc(C)nc3s2)C1 (stereo not drawn)	3%
CCc1ccc(CNC(=O)C2CC(=O)N(Cc3ccc(OC)cc3)C2)cc1 (stereo not drawn)	-1.79%
COc1ccccc1-c1nc2nc(C)cc(O)n2n1	4.54%
CC(C)CC(C(=O)NCC#N)c1nc(-c2cccc(-c3csc(N4CCN(C)CC4)n3)c2)cs1 (stereo not drawn)	-0.0222%
CN1C(=O)C(=Cc2ccc(Cl)cc2Cl)C(=O)N(C)C1=S	-0.807%
O=C(Cn1ncc2c(=O)oc3ccccc3c21)NCc1ccc(F)cc1	-6.62%
O=C(NCCc1ccc(Cl)cc1)c1ccc2nc(N3CCCCC3)sc2c1	-0.637%
O=c1cccc2n1C[C@H]1C[C@@H]2CN(Cc2ccccc2Cl)C1	-1.85%
COc1ccc2oc(=O)cc(CN3CCN(Cc4ccc(F)cc4)CC3)c2c1	0.425%
COc1ccc(OCC(=O)NC2CCCCCCC2)cc1	0.324%
COc1ccccc1CNC(=O)C1CC(=O)N(C2CCCC2)C1 (stereo not drawn)	3.79%
Cc1oc(-c2ccccc2Cl)nc1CS(=O)(=O)CC(=O)N1CCC(N2CCCCC2)CC1	0.44%

SMILES	% Inhibition @ 10 uM
COc1ccc(C2C(C(=O)N3CCOCC3)c3ccccc3C(=O)N2Cc2ccc(F)cc2)cc1 (stereo not drawn)	-0.363%
CC(=O)C(C#N)NC(=O)[C@H](CC(C)C)NC(=O)c1ccc(N2CCOCC2)cc1 (stereo partly drawn)	1.7%
COc1cccc(CN2C(=O)CN(C3CCC(C)CC3)C(=O)C2c2ccc(OC)c(OC)c2)c1 (stereo not drawn)	-4.06%
Cc1cc(C(=O)O)ccc1-c1ccc(CO)o1	-2.97%
C=CCOc1ccc2c(=O)c(Oc3cccc(C)c3)coc2c1	-3.1%
Cc1ccccc1Cn1c(C(=O)O)c(C=O)c2ccccc21	1.63%
Cc1onc(-c2ccccc2)c1C(=O)Nc1sc2c(c1C(N)=O)CCCCCC2	-0.949%
CCCCc1ccc(C2=N/C(=C\c3ccc4c(c3)OCO4)C(=O)O2)cc1	3.58%
Cc1nc2sccn2c1C(=O)Nc1nc(-c2ccc(Cl)cc2)cs1	4.11%
CC(=O)c1ccc(NC(=O)COc2cccc(C)c2)cc1	0.392%
c1ccc2c(c1)c(NCc1ccc3c(c1)OCO3)nn1nnnc21	-6.26%
CCOC(=O)N1CCN(CN2C(=O)/C(=N/c3ccc4ccccc4c3)c3ccccc32)CC1	-11.2%
COC(=O)C1=C(C)N=c2s/c(=C/c3ccco3)c(=O)n2C1c1ccc(OC)cc1 (stereo not drawn)	6.51%
CCOCCCNC(=O)C(c1ccc(Cl)cc1)N(Cc1cccs1)C(=O)c1ccccn1 (stereo not drawn)	-0.363%
Cc1cc(C)c2nc3s/c(=C\c4ccc(N(C)C)cc4)c(=O)n3c2c1	0.345%
Clc1ccc(-c2ccc(CN3CCOCC3)o2)cc1	-7.18%
COc1ccc(CNC(=O)Cc2ccc(-n3cccc3)cc2)cc1	1.2%
COc1cc(C2NC(=O)N(C)C(C)=C2C(=O)OCCOc2ccccc2)ccc1O (stereo not drawn)	1.25%
O=C(CCC1CCCC1)NCc1cccs1	-3.26%
CCn1c(C)cc(/C=C2\NC(=O)N(CC(=O)Nc3cccc(C)c3)C2=O)c1C	4.11%
O=C(NCCN1CCc2ccccc2C1)C1CCN(S(=O)(=O)N2CCCCC2)CC1	-3.12%

SMILES	% Inhibition @ 10 uM
CCOC(=O)N1CCN(C(=O)Cn2cnc3c(nnn3Cc3ccc(F)cc3)c2=O)CC1	-2.16%
N#Cc1ccccc1N/C=C/C(=O)c1cccs1	1.03%
Cc1cc(C)nc(SCc2nnc(SCC(N)=O)n2-c2ccccc2)n1	-3.68%
Cc1nn(CCCC(=O)NCCc2cccs2)c(=O)c2c1sc1ccccc12	23.3%
CC[C@H](NC(=O)[C@H](CS(=O)(=O)Cc1ccccc1OC(F)F)/N=C/NS(=O)(=O)c1ccccc1)C(=O)c1nc2ccccc2o1	-3.14%
COc1ccc(-c2cc(C(=O)Nc3cccnc3)no2)cc1	6.29%
Oc1c2c(nc3nc(-c4cccnc4)nn13)CCC2	-4.19%
CCOC(=O)c1c(C)n(C)c2ccc(OCC)cc12	-1.92%
CCCNC(=O)CN(C1CCCCC1)S(=O)(=O)c1ccc(F)cc1	-0.185%
COc1cccc(CNC(=O)CNC(=S)N(Cc2cccs2)C2CCCCC2)c1	-0.406%
COc1cccc(/C=C/C(=O)c2c(C)cc(C)nc2O)c1O	5.45%
CC(=O)N1N=C(c2ccc(C)o2)CC1c1ccc(F)cc1 (stereo not drawn)	-2.6%
COCCNC(=O)c1cc(C)nc2c1c(C)nn2-c1ccccc1	3.75%
Cc1ccc(-n2nc(C)c3c(C(F)(F)F)cc(-c4ccncc4)nc32)cc1	-5.4%
COCCN1C(=O)C(O)=C(C(=O)c2ccc(S(=O)(=O)N(C)C)cc2)C1c1cccc(Cl)c1 (stereo not drawn)	-1.6%
CC(C)N1CCc2nc(S)nc(O)c2C1	4.16%
Cc1ccccc1NC(=O)c1cccc(S(=O)(=O)N2CCCCC2)c1	-1.74%
CC(C)(C)NCC(=O)NCC12CC3CC(CC(C3)C1)C2	-2.48%
CC1CCN(C(=O)C2CCCN2C(=O)OCc2ccccc2)CC1 (stereo not drawn)	2.44%
NC(=O)c1cc(S(=O)(=O)NCc2ccc(F)cc2)cs1	-6.82%
CCc1nn(-c2cc(Oc3ccc(F)cc3)nc(SC)n2)c(N)c1C#N	-1.64%

— paper PMC6919601, “Identification of Plasmodium dipeptidyl aminopeptidase allosteric inhibitors by high throughput screening” (PLoS ONE, 2019)
